# Sequences with one replicate were seen in a single cluster, so their values are uncertain.
# Tested on: ATP
# Assay: switch fluorescence ratio, 500 uM ATP over buffer (Cy3 cluster intensity, sum of 5 cycles each) (fold (ratio)); higher = stronger signal-on switching upon ATP binding; sequences stand for … in TCGTCGGCAGCGTCAGATGTGTATAAGAGACAGTTTTTTTTTTTTTTTTTTTTTTTTT…TC
# Conditions: aptamer strand: ATP DNA aptamer (quencher-CACCTGGGGGAGTATTGCGGAGGAAGG + anchor), 100 nM annealed; ATP concentration: 500 uM; one replicate
# In short: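 For every switch-domain sequence, the fluorescence ratio is the mean of per-cluster values, each being summed target-cycle Cy3 intensity over summed buffer-cycle Cy3 intensity. Clusters outside 100-1000 RFU were excluded. On a modified Illumina MiSeq flow-cell, the Cy3-labelled switching-strand clusters were annealed to 100 nM quencher-labelled ATP aptamer, imaged in selection buffer and then after 15 min with 500 uM ATP at 22 °C. Five such cycles were run, with NaOH stripping and re-annealing between them.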
# 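Also: ATP exposure 15 min at 22 °C before imaging.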
row,Sequence,switch fluorescence ratio
1,CCATCTAAAT,0.987
2,CCATGAAAAA,0.987
3,CCATGACACC,1.06
4,CCATGACTGC,0.982
5,CCATGATCTG,0.993
6,CCATGCCAGC,1.06
7,CCATGCGTGG,1
8,CCATGCGTTC,1.12
9,CCATGCTTGA,0.983
10,CCATGGAAGT,0.98
11,CCATGGCTGC,1.15
12,CCATGTTCAT,1.02
13,CCATTAGGTG,2.25
14,CCATTATTTG,1.01
15,CCATTTAAAG,1
16,CCATTTTACT,1.04
17,CCATTTTTAT,0.969
18,CCCAAACATC,1.07
19,CCCAAACTAT,1.04
20,CCCACCAGG,4.14
21,CCCACCCAAG,1.16
22,CCCACGCAGG,3.61
23,CCCACGGACC,1.42
24,CCCACGTTTT,1.05
25,CCCAGCATGA,2.52
26,CCCAGCGGGC,1.17

row,Sequence,switch fluorescence ratio
1,CCCAGCGGTC,2.52
2,CCCAGGAATG,1.42
3,CCCATAGATT,1.01
4,CCCATGAAAG,0.959
5,CCCATTACTG,1.34
6,CCCCACCCCG,1.13
7,CCCCAGAAGA,1.1
8,CCCCATCGCT,1.06
9,CCCCCCTCTA,1.06
10,CCCCCGGATG,3.76
11,CCCCCTCTGA,1.09
12,CCCCGAGGGA,1.1
13,CCCCGCGCTT,3.99
14,CCCCGGACAA,3.21
15,CCCCGGCCAC,3.85
16,CCCCGGCGCA,2.08
17,CCCCGTTGAT,1.61
18,CCCCTAACGC,1.2
19,CCCCTAGTCA,1.06
20,CCCCTAGTGA,3.72
21,CCCCTTGACT,1
22,CCCCTTTACG,1.04
23,CCCGAAGGGG,1.01
24,CCCGACGAGA,3.55
25,CCCGACGTCA,1.79
26,CCCGAGTGGC,1.08

row,Sequence,switch fluorescence ratio
1,CCCGATCGAT,1.05
2,CCCGCAGATT,2.48
3,CCCGCGGGAG,1.02
4,CCCGGACGTT,0.939
5,CCCGGAGCCT,1.94
6,CCCGGATGTT,1.05
7,CCCGGGCGGA,1.02
8,CCCGGGCTAG,1.06
9,CCCGGGGATC,1.04
10,CCCGGTCTCG,1.04
11,CCCGGTGTGC,1.39
12,CCCGTAGCCA,2.23
13,CCCGTCGTTC,1.03
14,CCCGTGCGAT,1.01
15,CCCGTTAGT,1
16,CCCGTTGTGA,1.02
17,CCCTACTATT,1
18,CCCTAGGCCA,1.04
19,CCCTAGTGTA,1.14
20,CCCTATGTCC,1.02
21,CCCTCGTGCG,1
22,CCCTCTGTAC,2.99
23,CCCTCTGTGG,1.02
24,CCCTGAACGT,0.98
25,CCCTGAGCCG,0.975
26,CCCTGGGAGA,0.998

row,Sequence,switch fluorescence ratio
1,CCCTGGGCCC,1.02
2,CCCTGGGCGC,1.01
3,CCCTTAAGT,1
4,CCCTTCTTCA,1.1
5,CCCTTGCAAC,3.74
6,CCCTTTAGGT,1.01
7,CCGAAAGTAT,1.34
8,CCGAACAGAG,1.27
9,CCGAACATAA,3.69
10,CCGACAAGTA,4.59
11,CCGAGCACGC,1.58
12,CCGAGGGACT,1.67
13,CCGAGGGGTG,1.17
14,CCGAGGTAAA,1.84
15,CCGAGTCTAT,3.89
16,CCGATAATCG,1.12
17,CCGATCGTAG,3.99
18,CCGATGCCCC,3.63
19,CCGATGCGTC,1.99
20,CCGATGTCTG,1.1
21,CCGATGTTTC,3.26
22,CCGATTTGAG,1.04
23,CCGCACCCAA,3.08
24,CCGCAGGTTC,4.39
25,CCGCATTTGG,4.1
26,CCGCCTCGAT,3.68

row,Sequence,switch fluorescence ratio
1,CCGCCTGATA,1.88
2,CCGCGGGGAA,1.02
3,CCGCGGGGGA,1.09
4,CCGCGTTTCT,2.27
5,CCGCGTTTTG,1.18
6,CCGCTTTGGT,1.28
7,CCGGAAAGAC,2.54
8,CCGGAAATGT,1.03
9,CCGGAAGGAT,1.01
10,CCGGAAGTGT,1.07
11,CCGGAGAATT,3.02
12,CCGGAGAG,1.04
13,CCGGAGCGGG,2.9
14,CCGGATATTC,2.04
15,CCGGATCTTT,0.967
16,CCGGATGCCA,1.1
17,CCGGATGCGT,1.15
18,CCGGCAGATT,1.11
19,CCGGCATAAG,1.33
20,CCGGCCCAGC,1.21
21,CCGGCGATGA,1.51
22,CCGGCGCAT,2.49
23,CCGGGAGCTG,1.15
24,CCGGGATTGT,1.02
25,CCGGGCAACT,4.37
26,CCGGGCAGCA,2.07

row,Sequence,switch fluorescence ratio
1,CCGGGGACCA,1.02
2,CCGGGGAGTT,0.984
3,CCGGGGCGAG,1.11
4,CCGGGGCGGG,1.16
5,CCGGGGCGT,1.03
6,CCGGGGGCAT,2.73
7,CCGGGGTTCC,1.02
8,CCGGGGTTCT,1.03
9,CCGGGTACAT,1.08
10,CCGGGTTGC,1.52
11,CCGGTACAGC,1.3
12,CCGGTACCAT,0.988
13,CCGGTCTTCG,1.01
14,CCGGTGACCA,1.01
15,CCGGTGAGAA,1.01
16,CCGGTGAGCT,1.12
17,CCGGTGTGGC,1.08
18,CCGTAACGTG,1.18
19,CCGTACAGGG,1.12
20,CCGTAGAAT,2
21,CCGTAGGAGT,1.03
22,CCGTAGGCCC,1.07
23,CCGTAGTCGT,1.44
